# Paper PMC12820563
# Some of the results follow. The list includes weakly bound sequences.
# Molecular target: T1, MBP-FoxP3dN (UniProt Q99JB6)
# T1 sequence: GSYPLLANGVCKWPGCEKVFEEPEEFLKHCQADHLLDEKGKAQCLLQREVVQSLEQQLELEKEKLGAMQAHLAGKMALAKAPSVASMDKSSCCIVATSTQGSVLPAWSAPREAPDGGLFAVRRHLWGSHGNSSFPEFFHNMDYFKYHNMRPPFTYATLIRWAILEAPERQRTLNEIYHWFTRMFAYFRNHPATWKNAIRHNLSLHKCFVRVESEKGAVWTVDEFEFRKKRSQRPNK
# Test: PD-seq (MBP pull-down with sequencing)
# Conditions: 20 mM Tris-HCl pH 7.5, 100 mM NaCl, 1.5 mM MgCl2, 0.4 uM protein, 0.1 uM dsDNA library, 30 min, room temperature, amylose pull-down; high values mean tight binding; double strand, one strand shown
row,Sequence,binding signal (RPM ratio (pull-down/input))
1,GATGATTGTTCTCCCAGCTGATGAATTCAGTATTTCGAGTAAACAAATTTTCCTAATCTTTCTGTTCAAGCGCCATCTAC,2.18
2,GATGATTGTTCTCCCAGCTGATGAATTGATATCCTCGAGTAAACAAATTTTCCTAATCTTTCTGTTCAAGCGCCATCTAC,0.672
3,GATGATTGTTCTCCCAGCTGATGAATTATACCGGTCGAGTAAACAAATTTTCCTAATCTTTCTGTTCAAGCGCCATCTAC,0.324
4,GATGATTGTTCTCCCAGCTGATGAATTTCTTAAATCGAGTAAACAAATTTTCCTAATCTTTCTGTTCAAGCGCCATCTAC,0.192
5,GATGATTGTTCTCCCAGCTGATGAATTCGTTCCTTCGAGTAAACAAATTTTCCTAATCTTTCTGTTCAAGCGCCATCTAC,0.423
6,GATGATTGTTCTCCCAGCTGATGAATTCGAAGCGTCGAGTAAACAAATTTTCCTAATCTTTCTGTTCAAGCGCCATCTAC,0.43
7,GATGATTGTTCTCCCAGCTGATGAATTCTAGAACTCGAGTAAACAAATTTTCCTAATCTTTCTGTTCAAGCGCCATCTAC,0.183
8,GATGATTGTTCTCCCAGCTGATGAATTAATCTACTCGAGTAAACAAATTTTCCTAATCTTTCTGTTCAAGCGCCATCTAC,0.434
9,GATGATTGTTCTCCCAGCTGATGAATTAGCCAGCTCGAGTAAACAAATTTTCCTAATCTTTCTGTTCAAGCGCCATCTAC,0.244
10,GATGATTGTTCTCCCAGCTGATGAATTGGCGCACTCGAGTAAACAAATTTTCCTAATCTTTCTGTTCAAGCGCCATCTAC,0.684
11,GATGATTGTTCTCCCAGCTGATGAATTCGAATGGTCGAGTAAACAAATTTTCCTAATCTTTCTGTTCAAGCGCCATCTAC,0.503
12,GATGATTGTTCTCCCAGCTGATGAATTAACGGTATCGAGTAAACAAATTTTCCTAATCTTTCTGTTCAAGCGCCATCTAC,0.454
13,GATGATTGTTCTCCCAGCTGATGAATTCCGAAGATCGAGTAAACAAATTTTCCTAATCTTTCTGTTCAAGCGCCATCTAC,0.193
14,GATGATTGTTCTCCCAGCTGATGAATTAGCTAGTTCGAGTAAACAAATTTTCCTAATCTTTCTGTTCAAGCGCCATCTAC,1.19
15,GATGATTGTTCTCCCAGCTGATGAATTGGCGGACTCGAGTAAACAAATTTTCCTAATCTTTCTGTTCAAGCGCCATCTAC,0.314
16,GATGATTGTTCTCCCAGCTGATGAATTGGTATAGTCGAGTAAACAAATTTTCCTAATCTTTCTGTTCAAGCGCCATCTAC,1.24
17,GATGATTGTTCTCCCAGCTGATGAATTACCCCATTCGAGTAAACAAATTTTCCTAATCTTTCTGTTCAAGCGCCATCTAC,0.3
18,GATGATTGTTCTCCCAGCTGATGAATTTAGTGGTTCGAGTAAACAAATTTTCCTAATCTTTCTGTTCAAGCGCCATCTAC,2.12
19,GATGATTGTTCTCCCAGCTGATGAATTGCTCGAGTCGAGTAAACAAATTTTCCTAATCTTTCTGTTCAAGCGCCATCTAC,0.36
20,GATGATTGTTCTCCCAGCTGATGAATTCCGTCAATCGAGTAAACAAATTTTCCTAATCTTTCTGTTCAAGCGCCATCTAC,0.393
21,GATGATTGTTCTCCCAGCTGATGAATTCGCAATGTCGAGTAAACAAATTTTCCTAATCTTTCTGTTCAAGCGCCATCTAC,1.31

row,Sequence,binding signal (RPM ratio (pull-down/input))
1,GATGATTGTTCTCCCAGCTGATGAATTTCGGCAATCGAGTAAACAAATTTTCCTAATCTTTCTGTTCAAGCGCCATCTAC,2.11
2,GATGATTGTTCTCCCAGCTGATGAATTGTATCCTTCGAGTAAACAAATTTTCCTAATCTTTCTGTTCAAGCGCCATCTAC,1.61
3,GATGATTGTTCTCCCAGCTGATGAATTGTGCCCGTCGAGTAAACAAATTTTCCTAATCTTTCTGTTCAAGCGCCATCTAC,3.2
4,GATGATTGTTCTCCCAGCTGATGAATTTAGGCGTTCGAGTAAACAAATTTTCCTAATCTTTCTGTTCAAGCGCCATCTAC,1.51
5,GATGATTGTTCTCCCAGCTGATGAATTCAGGAGGTCGAGTAAACAAATTTTCCTAATCTTTCTGTTCAAGCGCCATCTAC,0.192
6,GATGATTGTTCTCCCAGCTGATGAATTATTTCGGTCGAGTAAACAAATTTTCCTAATCTTTCTGTTCAAGCGCCATCTAC,0.309
7,GATGATTGTTCTCCCAGCTGATGAATTAGCTCCTTCGAGTAAACAAATTTTCCTAATCTTTCTGTTCAAGCGCCATCTAC,0.293
8,GATGATTGTTCTCCCAGCTGATGAATTCCGTATGTCGAGTAAACAAATTTTCCTAATCTTTCTGTTCAAGCGCCATCTAC,2.71
9,GATGATTGTTCTCCCAGCTGATGAATTATCAAAGTCGAGTAAACAAATTTTCCTAATCTTTCTGTTCAAGCGCCATCTAC,0.195
10,GATGATTGTTCTCCCAGCTGATGAATTGTACGGTTCGAGTAAACAAATTTTCCTAATCTTTCTGTTCAAGCGCCATCTAC,0.452
11,GATGATTGTTCTCCCAGCTGATGAATTGGATCACTCGAGTAAACAAATTTTCCTAATCTTTCTGTTCAAGCGCCATCTAC,0.489
12,GATGATTGTTCTCCCAGCTGATGAATTGCCGACATCGAGTAAACAAATTTTCCTAATCTTTCTGTTCAAGCGCCATCTAC,0.714
13,GATGATTGTTCTCCCAGCTGATGAATTGATAGTCTCGAGTAAACAAATTTTCCTAATCTTTCTGTTCAAGCGCCATCTAC,0.784
14,GATGATTGTTCTCCCAGCTGATGAATTCTCATCATCGAGTAAACAAATTTTCCTAATCTTTCTGTTCAAGCGCCATCTAC,0.379
15,GATGATTGTTCTCCCAGCTGATGAATTGAGGTTCTCGAGTAAACAAATTTTCCTAATCTTTCTGTTCAAGCGCCATCTAC,0.641
16,GATGATTGTTCTCCCAGCTGATGAATTTAGTGTCTCGAGTAAACAAATTTTCCTAATCTTTCTGTTCAAGCGCCATCTAC,2.93
17,GATGATTGTTCTCCCAGCTGATGAATTGTTTGTGTCGAGTAAACAAATTTTCCTAATCTTTCTGTTCAAGCGCCATCTAC,8.22
18,GATGATTGTTCTCCCAGCTGATGAATTGTTTGGCTCGAGTAAACAAATTTTCCTAATCTTTCTGTTCAAGCGCCATCTAC,3.57
19,GATGATTGTTCTCCCAGCTGATGAATTGACATTTTCGAGTAAACAAATTTTCCTAATCTTTCTGTTCAAGCGCCATCTAC,0.513
20,GATGATTGTTCTCCCAGCTGATGAATTGTGATTCTCGAGTAAACAAATTTTCCTAATCTTTCTGTTCAAGCGCCATCTAC,2.37
21,GATGATTGTTCTCCCAGCTGATGAATTTTGGCGGTCGAGTAAACAAATTTTCCTAATCTTTCTGTTCAAGCGCCATCTAC,0.365

row,Sequence,binding signal (RPM ratio (pull-down/input))
1,GATGATTGTTCTCCCAGCTGATGAATTTACTAGATCGAGTAAACAAATTTTCCTAATCTTTCTGTTCAAGCGCCATCTAC,0.323
2,GATGATTGTTCTCCCAGCTGATGAATTTCTAGCGTCGAGTAAACAAATTTTCCTAATCTTTCTGTTCAAGCGCCATCTAC,0.435
3,GATGATTGTTCTCCCAGCTGATGAATTCACTCGCTCGAGTAAACAAATTTTCCTAATCTTTCTGTTCAAGCGCCATCTAC,0.262
4,GATGATTGTTCTCCCAGCTGATGAATTGGTATCCTCGAGTAAACAAATTTTCCTAATCTTTCTGTTCAAGCGCCATCTAC,1.31
5,GATGATTGTTCTCCCAGCTGATGAATTGGGGGGGTCGAGTAAACAAATTTTCCTAATCTTTCTGTTCAAGCGCCATCTAC,0.83
6,GATGATTGTTCTCCCAGCTGATGAATTGCAGAGATCGAGTAAACAAATTTTCCTAATCTTTCTGTTCAAGCGCCATCTAC,0.478
7,GATGATTGTTCTCCCAGCTGATGAATTTAGTCGGTCGAGTAAACAAATTTTCCTAATCTTTCTGTTCAAGCGCCATCTAC,0.307
8,GATGATTGTTCTCCCAGCTGATGAATTCCAGTACTCGAGTAAACAAATTTTCCTAATCTTTCTGTTCAAGCGCCATCTAC,0.393
9,GATGATTGTTCTCCCAGCTGATGAATTCGCCATATCGAGTAAACAAATTTTCCTAATCTTTCTGTTCAAGCGCCATCTAC,0.952
10,GATGATTGTTCTCCCAGCTGATGAATTAAAAAAATCGAGTAAACAAATTTTCCTAATCTTTCTGTTCAAGCGCCATCTAC,0.138
11,GATGATTGTTCTCCCAGCTGATGAATTACCGACATCGAGTAAACAAATTTTCCTAATCTTTCTGTTCAAGCGCCATCTAC,0.532
12,GATGATTGTTCTCCCAGCTGATGAATTGAAGCAATCGAGTAAACAAATTTTCCTAATCTTTCTGTTCAAGCGCCATCTAC,1.71
13,GATGATTGTTCTCCCAGCTGATGAATTCCTCATTTCGAGTAAACAAATTTTCCTAATCTTTCTGTTCAAGCGCCATCTAC,0.318
14,GATGATTGTTCTCCCAGCTGATGAATTAGAGCCGTCGAGTAAACAAATTTTCCTAATCTTTCTGTTCAAGCGCCATCTAC,0.382
15,GATGATTGTTCTCCCAGCTGATGAATTTTCCTCTTCGAGTAAACAAATTTTCCTAATCTTTCTGTTCAAGCGCCATCTAC,0.203
16,GATGATTGTTCTCCCAGCTGATGAATTGTATCCCTCGAGTAAACAAATTTTCCTAATCTTTCTGTTCAAGCGCCATCTAC,1.36
17,GATGATTGTTCTCCCAGCTGATGAATTTTTGCTGTCGAGTAAACAAATTTTCCTAATCTTTCTGTTCAAGCGCCATCTAC,0.548
18,GATGATTGTTCTCCCAGCTGATGAATTTTCACATTCGAGTAAACAAATTTTCCTAATCTTTCTGTTCAAGCGCCATCTAC,0.371
19,GATGATTGTTCTCCCAGCTGATGAATTTCCTCTCTCGAGTAAACAAATTTTCCTAATCTTTCTGTTCAAGCGCCATCTAC,0.291
20,GATGATTGTTCTCCCAGCTGATGAATTTGCTAGTTCGAGTAAACAAATTTTCCTAATCTTTCTGTTCAAGCGCCATCTAC,4.85
21,GATGATTGTTCTCCCAGCTGATGAATTAGTTTGGTCGAGTAAACAAATTTTCCTAATCTTTCTGTTCAAGCGCCATCTAC,5.41
